Source: the supplement of paper PMC9588766
Counter-ions that a name gives are not always drawn. ± gives the standard deviation of the averaged measurements. In all, about 2,000 compounds were measured (“cell viability relative to DMSO control (compound alone)”: median about 0.98, lowest 2% from about 0.23 on). Some of the results follow.

These molecules were tested on PDC-DUC18828 (assay: cell viability relative to DMSO control (compound alone) (fraction); PDC-DUC18828 is a patient-derived cholangiocarcinoma cell line; higher = less growth inhibition). Conditions: 1 µM; 72 h.
Procedure: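 Selleck Bioactive library screen in the patient-derived FGFR2-G3BP2 fusion-positive ICC cell line PDC-DUC18828 (500 cells/well). Each compound was tested at 1 uM alone, in triplicate, for 72 h. Viability was read by CellTiter-Glo and normalised to plate DMSO controls.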
`Clc1cccc(-c2nnnn2Cc2cccnc2)c1Cl` showed a cell viability of 0.927 ± 0.025. `C/C=C1/[C@H](O[C@@H]2O[C@H](CO)[C@@H](O)[C@H](O)[C@H]2O)OC=C(C(=O)OC)[C@H]1CC(=O)OCCc1ccc(O)c(O)c1` [Oleuropein] gave a cell viability of 1.01 ± 0.05. `Cc1cc(=O)oc2cc(O)ccc12` [4-Methylumbelliferone (4-MU)] was tested, and the cell viability was 1.06 ± 0.011. `CC(C)C[C@@H](C=O)NC(=O)[C@H](CC(C)C)NC(=O)[C@H](CC(C)C)NC(=O)OCc1ccccc1` showed a cell viability of 0.0214 ± 0.002. Work on `COC1=CC(c2cc3ccccc3[nH]2)=N/C1=C\c1[nH]c(C)cc1C` [Obatoclax Mesylate (GX15-070)] yielded a cell viability of 0.253 ± 0.022. For `N=C(N)NC(=N)N1CCOCC1` [Moroxydine HCl], the cell viability was 1.02 ± 0.09. For `CC(=O)Oc1cccc2c1C(=O)c1c(OC(C)=O)cc(C(=O)O)cc1C2=O` [Diacerein], the cell viability was 0.962 ± 0.041. `CCN(CC)Cc1ccc2cc(COC(=O)Nc3ccc(C(=O)NO)cc3)ccc2c1` [Givinostat (ITF2357)] was tested, and the cell viability was 0.54 ± 0.033. `CC(C)(C#N)c1ccc(N2C(=O)OCc3cnc4ccc(-c5cnc6ccccc6c5)cc4c32)cc1` showed a cell viability of 0.931 ± 0.064. `COc1ccc(NS(=O)(=O)c2ccc(N)cc2)nn1` [Sulfamethoxypyridazine] gave a cell viability of 1.02 ± 0.026. With `Nc1ccc(C(=O)NCC(=O)O)cc1` [4-Aminohippuric Acid] the cell viability was 0.932 ± 0.031. Work on `CCCC(=O)O[C@]1(C(=O)COC(C)=O)CC[C@H]2[C@@H]3C[C@H](F)C4=CC(=O)C=C[C@]4(C)[C@@]3(F)[C@@H](O)C[C@@]21C` [Difluprednate] yielded a cell viability of 0.956 ± 0.048. Molecule `OC[C@H]1O[C@@H](Oc2ccc(O)cc2)[C@H](O)[C@@H](O)[C@@H]1O` [Arbutin] has a cell viability of 0.955 ± 0.052. For `O=C(c1ccc(C(=O)N2CCC(N3CCCC3)CC2)c(Nc2ccccc2)c1)N1CCC(N2CCCC2)CC1`, the cell viability was 0.989 ± 0.046. `NC(=O)c1cnc2[nH]ccc2c1N[C@@H]1[C@@H]2CC3C[C@H]1C[C@@](O)(C3)C2` gave a cell viability of 0.832 ± 0.026. Molecule `CCN1CCN(C(=O)N[C@@H](C(=O)N[C@@H]2C(=O)N3[C@@H]2SC(C)(C)[C@@H]3C(=O)O)c2ccccc2)C(=O)C1=O` [Piperacillin Sodium] has a cell viability of 1.06 ± 0.04. `CN(NC(=O)CC(=O)NN(C)C(=S)c1ccccc1)C(=S)c1ccccc1` [Elesclomol (STA-4783)] gave a cell viability of 0.0677 ± 0.026. For `CO[C@@H]1[C@@H](OC(N)=O)[C@@H](O)[C@H](Oc2ccc3c(O)c(NC(=O)c4ccc(O)c(CC=C(C)C)c4)c(=O)oc3c2C)OC1(C)C` [Novobiocin Sodium], the cell viability was 0.975 ± 0.012. With `CC(=O)OCOC(=O)CN(CC(=O)OCOC(C)=O)c1ccccc1OCCOc1ccccc1N(CC(=O)OCOC(C)=O)CC(=O)OCOC(C)=O` the cell viability was 0.87 ± 0.075. Work on `O=C(O[C@H]1CN2CCC1CC2)N1CCc2ccccc2[C@@H]1c1ccccc1` [Solifenacin succinate] yielded a cell viability of 0.97 ± 0.058. `NC(=O)N/N=C/c1ccc([N+](=O)[O-])o1` [Nitrofural] gave a cell viability of 0.986 ± 0.045. In the case of `CC(C)C[C@H](NC(=O)[C@H](CCc1ccccc1)NC(=O)CN1CCOCC1)C(=O)N[C@@H](Cc1ccccc1)C(=O)N[C@@H](CC(C)C)C(=O)[C@@]1(C)CO1` [Carfilzomib (PR-171)], the cell viability is reported as 0.0263 ± 0.0069. `O=S(=O)(c1ccccc1)c1cnc2c(N3CCNCC3)cccc2c1` gave a cell viability of 1.03 ± 0.02. In the case of `CN(C)CCC[C@@]1(c2ccc(F)cc2)OCc2cc(C#N)ccc21` [Escitalopram Oxalate], the cell viability is reported as 1.01 ± 0.074. `CCCC(=O)Nc1ncnc2c1ncn2[C@@H]1O[C@@H]2COP(=O)(O)O[C@H]2[C@H]1OC(=O)CCC` [Dibutyryl-cAMP (Bucladesine)] was tested, and the cell viability was 0.942 ± 0.042. `CC1=CC(=O)NS(=O)(=O)O1` [Acesulfame Potassium] gave a cell viability of 0.971 ± 0.034. `CN1CCCC(n2nc(Cc3ccc(Cl)cc3)c3ccccc3c2=O)CC1` (stereo not given) [Azelastine HCl] gave a cell viability of 1.07 ± 0.054. For `Cc1cc([N+](=O)[O-])ccc1NS(=O)(=O)c1cc(Cl)ccc1Cl`, the cell viability was 0.903 ± 0.084. `COc1ccc(COc2ccc(Cc3cnc(N)nc3N)cc2OC)cc1` showed a cell viability of 0.99 ± 0.017. With `O=C(O)CCNc1cc(N2CCc3ccccc3CC2)nc(-c2ccccn2)n1` the cell viability was 0.97 ± 0.012. Work on `O=C(N/N=C/c1ccc(O)c(O)c1)c1cc2ccccc2cc1O` [Dynasore] yielded a cell viability of 1 ± 0.039. `C=CC[C@@H]1/C=C(\C)C[C@H](C)C[C@H](OC)[C@H]2O[C@@](O)(C(=O)C(=O)N3CCCC[C@H]3C(=O)O[C@H](/C(C)=C/[C@@H]3CC[C@@H](O)[C@H](OC)C3)[C@H](C)[C@@H](O)CC1=O)[C@H](C)C[C@@H]2OC` [Tacrolimus (FK506)] showed a cell viability of 0.901 ± 0.017. `COc1ccc2[nH]cc(CCNC(C)=O)c2c1` [Melatonin] was tested, and the cell viability was 1 ± 0.036. `O=C([O-])c1ccccc1O.[Na+]` [Sodium salicylate] was tested, and the cell viability was 0.985 ± 0.037. For `Cc1ccc(C(=O)c2cc(O)c(O)c([N+](=O)[O-])c2)cc1` [Tolcapone], the cell viability was 0.981 ± 0.051. `CCN(Cc1ccncc1)C(=O)C(CO)c1ccccc1` (stereo not given) [Tropicamide] was tested, and the cell viability was 1.03 ± 0.013. `CC(=O)O/N=C1\C(=O)N(Cc2cc(Cl)ccc2Cl)c2ccc(Cl)cc21` was tested, and the cell viability was 0.949 ± 0.022. `O=C(Cc1cccc(OC(F)(F)F)c1)Nc1ccc(CCCCc2nnc(NC(=O)Cc3ccccn3)s2)nn1` gave a cell viability of 0.897 ± 0.015. `Cc1ncc([N+](=O)[O-])n1CCO` [Metronidazole] gave a cell viability of 0.987 ± 0.05. In the case of `CCN(CC)CC#CCOC(=O)C(O)(c1ccccc1)C1CCCCC1` (stereo not given) [Oxybutynin chloride], the cell viability is reported as 0.932 ± 0.029. Molecule `CCN(CC)CC#CCOC(=O)C(O)(c1ccccc1)C1CCCCC1` (stereo not given) [Oxybutynin] has a cell viability of 1.04 ± 0.014. `COc1ccc(-c2oc3c(CC=C(C)C)c(O[C@@H]4O[C@H](CO)[C@@H](O)[C@H](O)[C@H]4O)cc(O)c3c(=O)c2O[C@@H]2O[C@@H](C)[C@H](O)[C@@H](O)[C@H]2O)cc1` [Icariin] gave a cell viability of 0.924 ± 0.033. `CCn1cc(C(=O)O)c(=O)c2ccc(C)nc21` [Nalidixic acid] gave a cell viability of 0.968 ± 0.011. Work on `COc1ccc2cc(CCC(C)=O)ccc2c1` [Nabumetone] yielded a cell viability of 0.989 ± 0.056. In the case of `O=C(CCCN1CC=C(n2c(=O)[nH]c3ccccc32)CC1)c1ccc(F)cc1` [Droperidol], the cell viability is reported as 1.09 ± 0.037. `CCO[C@@H]1OC(=O)C[C@@H]1NC(=O)[C@@H]1CCCN1C(=O)[C@@H](NC(=O)c1ccc(N)c(Cl)c1)C(C)(C)C` showed a cell viability of 1.09 ± 0.016. In the case of `O=C(Nc1cc(C(F)(F)F)ccc1N1CCCCC1)c1ccncc1`, the cell viability is reported as 1.01 ± 0.016. `Cc1ccc(NC(=O)c2ccc(CN3CCN(C)CC3)cc2)cc1Nc1nc(-c2cccnc2)cs1` [Masitinib (AB1010)] showed a cell viability of 1.05 ± 0.035. Work on `COc1nc(C)nc(Cl)c1NC1=NCCN1` [Moxonidine] yielded a cell viability of 1.06 ± 0.04. `CCCC[C@@H](C=O)NC(=O)[C@H](CC(C)C)NC(=O)OCc1ccccc1` [Calpeptin] gave a cell viability of 1.05 ± 0.066. For `Cc1ccc(S(=O)(=O)NC(=O)NN2CC3CCCC3C2)cc1` (stereo not given) [Gliclazide], the cell viability was 0.9637 ± 0.0073. For `Cc1cc(Cn2cnc3c2CC(C(=O)O)N(C(=O)C(c2ccccc2)c2ccccc2)C3)ccc1N(C)C` (stereo not given), the cell viability was 1 ± 0.032. `O=c1c(O)c(-c2cc(O)c(O)c(O)c2)oc2cc(O)cc(O)c12` [Myricetin] gave a cell viability of 0.902 ± 0.043. For `C[C@H]1C[C@@H]2[C@H]([C@@H](O)C[C@@]3(C)[C@H]2CC[C@]3(O)C(=O)CO)[C@@]2(C)C=CC(=O)C=C12` [Methylprednisolone], the cell viability was 0.91 ± 0.017. For `O=C1c2ccc(Nc3ccc(F)cc3F)cc2CCc2ccc(OC[C@H](O)CO)cc21` [Skepinone-L], the cell viability was 1 ± 0.012. Work on `CCCNCC(O)COc1ccccc1C(=O)CCc1ccccc1` (stereo not given) [Propafenone HCl] yielded a cell viability of 0.997 ± 0.026. Molecule `NC(=O)C(c1ccccc1)(c1ccccc1)[C@@H]1CCN(CCc2ccc3c(c2)CCO3)C1` [Darifenacin HBr] has a cell viability of 1.04 ± 0.02. Molecule `COc1ccccc1OCC(O)CN1CCN(CC(=O)Nc2c(C)cccc2C)CC1` (stereo not given) [Ranolazine 2HCl] has a cell viability of 1.09 ± 0.084. For `COc1ccccc1OCC(O)CN1CCN(CC(=O)Nc2c(C)cccc2C)CC1` (stereo not given) [Ranolazine], the cell viability was 0.973 ± 0.048. `CN(C)C(=S)NN=C(c1ccccn1)c1ccccn1` showed a cell viability of 0.305 ± 0.012. Molecule `Nc1nc2n[nH]nc2c(=O)[nH]1` [Azaguanine-8] has a cell viability of 1.08 ± 0.062. `CN(C)c1nc(N(C)C)nc(N(C)C)n1` [Altretamine] was tested, and the cell viability was 0.969 ± 0.042. Molecule `COc1cc2c(Oc3ccc4[nH]c(C)cc4c3F)ncnc2cc1OCCCN1CCCC1` [Cediranib (AZD2171)] has a cell viability of 0.875 ± 0.031. `CC(=O)O[C@]1(C(C)=O)CC[C@H]2[C@@H]3C[C@H](C)C4=CC(=O)CC[C@]4(C)[C@H]3CC[C@@]21C` [Medroxyprogesterone acetate] gave a cell viability of 1.01 ± 0.035. For `O=C(O)c1cc(-c2ccccc2)nc2ccccc12` [Cinchophen], the cell viability was 1.04 ± 0.028. In the case of `O=S(=O)(O)c1cc(O)ccc1O` [Ethamsylate], the cell viability is reported as 1.04 ± 0.027. `CCC(=O)O[C@]1(C(=O)CCl)[C@@H](C)C[C@H]2[C@@H]3CCC4=CC(=O)C=C[C@]4(C)[C@@]3(F)[C@@H](O)C[C@@]21C` [Clobetasol propionate] showed a cell viability of 0.949 ± 0.027. Molecule `O=C1C[C@@H](c2ccc(O)cc2)Oc2cc(O)cc(O)c21` [Naringenin] has a cell viability of 0.969 ± 0.051. With `CCOC(=O)[C@H](CCc1ccccc1)N[C@H]1CS[C@H](c2cccs2)CN(CC(=O)O)C1=O` [Temocapril HCl] the cell viability was 1 ± 0.033. With `COc1ccc(F)c(F)c1C(=O)c1cnc(NC2CCN(S(C)(=O)=O)CC2)nc1N` the cell viability was 0.705 ± 0.047. `CCCCC(F)(F)[C@@]1(O)CC[C@H]2[C@@H](CC(=O)[C@@H]2CCCCCCC(=O)O)O1` [Lubiprostone] gave a cell viability of 1.04 ± 0.026. For `COc1ccc(C2CNC(=O)C2)cc1OC1CCCC1` (stereo not given) [Rolipram], the cell viability was 1.03 ± 0.011. In the case of `O=c1c(O)c(-c2ccc(O)cc2O)oc2cc(O)cc(O)c12` [Morin Hydrate], the cell viability is reported as 0.888 ± 0.067. `OC[C@H]1O[C@@H](Oc2cc(O)cc(/C=C/c3ccc(O)cc3)c2)[C@H](O)[C@@H](O)[C@@H]1O` [Polydatin] gave a cell viability of 0.913 ± 0.051. Work on `CC(=O)Nc1nc(C)c(-c2ccc(Cl)c(S(=O)(=O)NCCO)c2)s1` yielded a cell viability of 0.897 ± 0.036.
